Reference: publication PMC4336329 (PLoS ONE, 2015)
The campaign covered roughly 310,000 compounds. About 14,000 (4.5%) showed an effect of 50% or more. Effects have a minus sign here. The list shows a part of the results.

Molecular target: human ether-à-go-go-related gene (hERG) potassium channel (human, UniProt Q12809)
Assay: primary screen, population patch clamp on CHO cells stably expressing hERG
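Note: peak tail current of the secondary pulse compared with the same well before compound.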

human ether-à-go-go-related gene (hERG) potassium channel, sequence (Q12809 whole entry, looked up): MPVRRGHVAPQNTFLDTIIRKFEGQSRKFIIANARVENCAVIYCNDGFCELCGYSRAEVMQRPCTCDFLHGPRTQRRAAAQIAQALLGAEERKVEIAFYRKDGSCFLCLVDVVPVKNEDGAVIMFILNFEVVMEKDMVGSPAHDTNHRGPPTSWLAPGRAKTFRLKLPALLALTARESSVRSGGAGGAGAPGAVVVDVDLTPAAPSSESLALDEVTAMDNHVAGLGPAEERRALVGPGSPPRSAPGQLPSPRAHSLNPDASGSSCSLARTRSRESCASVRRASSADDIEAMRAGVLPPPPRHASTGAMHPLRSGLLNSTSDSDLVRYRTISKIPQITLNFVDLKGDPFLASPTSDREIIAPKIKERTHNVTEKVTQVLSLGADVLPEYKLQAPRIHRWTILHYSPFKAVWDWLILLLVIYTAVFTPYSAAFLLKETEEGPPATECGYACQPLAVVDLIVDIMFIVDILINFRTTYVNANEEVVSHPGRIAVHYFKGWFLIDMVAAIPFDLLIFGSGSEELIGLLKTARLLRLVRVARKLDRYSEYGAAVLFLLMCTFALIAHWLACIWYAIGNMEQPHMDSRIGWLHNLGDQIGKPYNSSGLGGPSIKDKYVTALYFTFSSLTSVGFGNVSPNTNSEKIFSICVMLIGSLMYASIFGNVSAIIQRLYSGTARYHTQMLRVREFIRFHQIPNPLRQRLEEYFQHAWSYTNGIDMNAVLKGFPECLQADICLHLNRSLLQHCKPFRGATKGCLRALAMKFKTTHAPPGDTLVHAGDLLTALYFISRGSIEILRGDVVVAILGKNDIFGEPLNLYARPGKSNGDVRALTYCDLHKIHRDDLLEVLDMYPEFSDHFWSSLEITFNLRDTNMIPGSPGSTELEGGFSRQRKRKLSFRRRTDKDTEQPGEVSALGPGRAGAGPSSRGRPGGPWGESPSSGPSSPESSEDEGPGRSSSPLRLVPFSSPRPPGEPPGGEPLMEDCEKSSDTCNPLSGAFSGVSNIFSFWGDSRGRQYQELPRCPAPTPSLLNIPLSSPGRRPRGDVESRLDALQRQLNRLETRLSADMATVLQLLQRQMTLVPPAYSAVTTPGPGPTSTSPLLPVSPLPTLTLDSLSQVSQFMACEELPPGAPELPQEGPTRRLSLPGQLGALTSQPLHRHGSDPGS

Row | SMILES | hERG current change (%, negative = inhibition) at 10uM [%]
1 | Cc1nnsc1C(=O)N1CCCC(N2CCN(c3cccc(C(F)(F)F)c3)CC2)C1 (centres unmarked) | -26.8
2 | Cc1ccc2nc(SCC(=O)NCc3ccco3)c(C#N)cc2c1 | 9.44
3 | CC1(C)Cc2cccc(OCC(=O)NCCc3ccc(S(N)(=O)=O)cc3)c2O1 | -7.34
4 | CCOc1ccc(CNC(=O)c2cccc(NC(=O)C3=C(C)OCCS3)c2)cc1 | -12.8
5 | CCCC(C)NC(=O)CN(Cc1ccco1)S(=O)(=O)c1ccccc1 (centres unmarked) | 2.25
6 | Cc1cc(C)nc(Nc2n[nH]c(COc3ccc(Cl)cc3)n2)n1 | -8.24
7 | CCC1(C)C(Nc2c(C)cccc2C)=NC(=S)N1c1ccc(NC(C)=O)cc1 (centres unmarked) | 6.3
8 | O=C(Nc1ncc(Cc2ccccc2)s1)C1COc2ccccc2O1 (centres unmarked) | -0.581
9 | COc1ccc(CNc2nnnn2C)cc1 | 20.9
10 | CC(C)(C)c1ccc(C(=O)OCCN2CCCCC2)cc1.Cl | -47.6
11 | COC(=O)C1=C(C(=O)OC)C2(OC1c1ccc(Br)cc1)C(=O)c1ccccc1C2=O (centres unmarked) | 17
12 | CCOC(=O)c1ccc(NC(=O)CC2S/C(=N/N=C/c3c[nH]c4ccccc34)NC2=O)cc1 (centres unmarked) | -5.73
13 | Cc1ccc(-c2nsc(SCC(=O)NCc3ccc4c(c3)OCO4)n2)cc1 | 6.1
14 | CC1(C)Cc2c(C#N)c(SCc3ccccc3)nc(N3CCOCC3)c2CO1 | -23.1
15 | Cc1cccc(NC(=O)C2CCN(c3nccc(C)n3)CC2)c1 | 11.7
16 | Cc1ccc(S(=O)(=O)N2CCN(S(C)(=O)=O)C2C)cc1 (centres unmarked) | -5.44
17 | Cc1nc2nc(C)c(NS(=O)(=O)c3ccc(CC(C)C)cc3)c(=O)n2[nH]1 | 27.5
18 | NS(=O)(=O)c1ccc(CCNC(=O)c2ccc(Cl)nc2)cc1 | 20.6
19 | CN(C)C(CNc1ccc(S(C)(=O)=O)cc1[N+](=O)[O-])c1ccccc1 (centres unmarked) | -12.6
20 | COC(=O)c1c(C)[nH]c(C(=O)CN2CCOCC2)c1C | 17.8
21 | O=C(CN(C1CCCCC1)S(=O)(=O)c1ccc(F)cc1)Nc1ccc2c(c1)OCO2 | -25.1
22 | COc1ccccc1N1CCN(C(=O)Cc2ccc(Cl)cc2)CC1 | -1.77

Row | SMILES | hERG current change (%, negative = inhibition) at 10uM [%]
23 | Cc1cc(C)c2[nH]c(=O)c(CN(CC3CCCO3)C(=S)NCc3ccco3)cc2c1 (centres unmarked) | -4.81
24 | COc1ccc([C@@]2(O)c3c(ccc(CC=C(C)C)c3O)NC(=O)[C@@H]2OC)cc1 | 7.93
25 | Cc1c(Br)c(C(=O)NCc2cc3cc(Cl)ccc3[nH]2)nn1C | 2.19
26 | CCc1ccc(CNC(=O)C2CC(=O)N(C3CCCC3)C2)cc1 (centres unmarked) | 16.7
27 | CC(C)C(NC(=O)/C(=C/c1ccco1)NC(=O)c1ccc(Br)o1)C(=O)O (centres unmarked) | 12.3
28 | O=C(c1n[nH]c2ccccc12)N1CCCCC1 | 10.8
29 | O=C(Nc1cccc2nsnc12)c1ccc(-c2ccc(Br)cc2)o1 | -0.757
30 | Cc1cc(NC(=O)COc2cccc(Oc3ccccc3)c2)no1 | 13.5
31 | Cc1cc(NC(=O)CSc2nnc(NCc3ccco3)s2)no1 | 13.2
32 | CCOC(=O)/C(=N\Nc1ccccc1Cl)N1CCN(C)CC1 | -22.6
33 | O=C(CN1CCN(c2ncc(C(F)(F)F)cc2Cl)CC1)NCCNc1ncc(C(F)(F)F)cc1Cl | 14.3
34 | CCCN(CC1CC1)S(=O)(=O)c1ccc(S(N)(=O)=O)cc1 | -17.1
35 | CN(C(=O)c1ccccc1Cl)c1ccccc1C(=O)NCc1ccccc1 | 4.28
36 | O=C(Nc1ccc(C(F)(F)F)cc1)c1csc(-c2ccncc2)n1 | -25.4
37 | CC(Nc1ccc(F)cc1)=[N+](C)CCNS(=O)(=O)c1ccc(Cl)cc1.[I-] | -68.4
38 | CC1(C#CC[N+]2(C)CCCCC2)CCC2C(O1)c1ccccc1OC2(C)C.[I-] (centres unmarked) | 22.4
39 | O=C(CN1C(=O)COc2ccc(Cl)cc21)NC1CC1 | -11.1
40 | COc1ccc2c(C)cc(SCC(=O)Nc3nsc(-c4ccc(C)cc4)n3)nc2c1 | -2.54
41 | CC(=O)Nc1nc(C)cs1 | 18.6
42 | S=c1[nH]nc(COc2ccccc2)n1/N=C/c1ccccc1Br | 14.7
43 | COc1ccc(NC(=O)C2C(c3ccccc3)C2(Cl)Cl)cc1 (centres unmarked) | 4.69
44 | Cc1cccc(C(=O)NCc2nnc3c4ccccc4c(-c4ccccc4)nn23)c1 | -4.14

Row | SMILES | hERG current change (%, negative = inhibition) at 10uM [%]
45 | CCCN1CCN(C(=O)Cn2cnc3sc(C)c(S(=O)(=O)N4CCC(C)CC4)c3c2=O)CC1 | -23.1
46 | Cc1ccc(S(=O)(=O)NN/C(=N/S(=O)(=O)c2ccccc2)c2ccccc2)cc1 | 21.1
47 | O=C1Nc2ccccc2C1(O)c1ccccc1O (centres unmarked) | 34.6
48 | CC(NC(=O)COC(=O)c1cc(NS(=O)(=O)c2ccc(Cl)c([N+](=O)[O-])c2)ccc1O)C1CC2CCC1C2 (centres unmarked) | -2.01
49 | COc1ccc(C2/C(=C(/O)c3ccc4c(c3)CC(C)O4)C(=O)C(=O)N2Cc2cccnc2)cc1 (centres unmarked) | 12.9
50 | O=C(NCc1cccs1)c1ccc(S(=O)(=O)N2CCOCC2)cc1 | -9.72
51 | COc1cccc(C2CC(=O)NC(SC)=C2C#N)c1 (centres unmarked) | 0.0274
52 | Cc1ccc(NCC(=O)Nc2cccc(F)c2)cc1S(=O)(=O)N1CCCCCC1 | -22.6
53 | CN1CCN(CC(=O)Nc2ccc([N+](=O)[O-])cc2C(=O)c2ccccc2)CC1 | -84.6
54 | CCc1ccccc1NC(=O)NC1CC2CCC(C1)N2Cc1cccs1 (centres unmarked) | -22.4
55 | CC(C)C[C@H](NC(=O)Nc1cccc(Cl)c1)C(=O)O | -0.951
56 | O=C1CCNCCN1[C@H](CO)c1ccccc1 | 16.3
57 | CC(C)(O[C@@H]1O[C@H](CO)[C@@H](O)[C@H](O)[C@H]1O)[C@@H]1CC=C(C(=O)O)CC1 | 15.5
58 | Cc1cc(NC(=O)c2ccc(Br)o2)ccc1NC(=O)c1ccco1 | -58.2
59 | COc1ccc(CCNC(=O)C2CCN(C(=O)c3ccc(F)cc3)CC2)cc1 | 10.2
60 | COc1ccc(N(Cc2cc3cccc(C)c3[nH]c2=O)C(=O)C2CCCO2)cc1 (centres unmarked) | -10.3
61 | O=C(CN1C(=O)NC2(CCc3ccccc32)C1=O)NCC(=O)Nc1ccc(F)cc1 (centres unmarked) | 1.09
62 | Cc1cc2n(n1)C(c1cn(-c3ccccc3)nc1C)Nc1ccccc1-2 (centres unmarked) | 2.74
63 | C=CCNC(=O)COC(=O)c1ccc(C)c(NC(=O)c2ccco2)c1 | -5.01
64 | Cc1nc(=S)c2c([nH]1)-c1ccccc1CC21CCCCC1 | 10.8
65 | COC1=C/C(=C/c2c(N)n3nc(CC(=O)N4CCCC4)sc3nc2=O)C=CC1=O | 17.2
66 | COc1ccccc1-n1cnnc1SCC(=O)N1CCN(S(=O)(=O)c2ccccc2)CC1 | 4.83

Row | SMILES | hERG current change (%, negative = inhibition) at 10uM [%]
67 | COc1ccc(C)cc1NC(=O)c1c([N+](=O)[O-])cnn1C | 12.9
68 | Cc1cc(C(=O)NC2CCCc3c2cnn3-c2cccc(C)c2C)no1 (centres unmarked) | -11.8
69 | CCCn1nc(C(=O)N2CCc3ccccc32)c2ccccc2c1=O | -11.1
70 | COc1cccc(C2C(C(=O)c3ccc(C)o3)=C(O)C(=O)N2c2cc(C)on2)c1 (centres unmarked) | -1.29
71 | CN=C(c1ccc(C)cc1)n1c(=S)nc(-c2ccc(C)cc2)n(C)c1=S | 26
72 | O=C(CCN1C(=O)C2(OCCO2)c2ccccc21)c1ccccc1 | 4.71
73 | O=C(c1cc(-c2ccc(F)cc2)on1)N1CCCc2ccccc21 | 7.4
74 | COc1ccc(-c2noc(COC(=O)c3ccco3)n2)cc1OC | 8.52
75 | COc1ccccc1N1CCN(C(=O)CCC(=O)N2CCN(c3ccc(F)cc3)CC2)CC1 | -17
76 | Fc1ccccc1Cc1noc(CN2CCN(Cc3ccc4c(c3)OCO4)CC2)n1 | -25.9
77 | Cc1[nH]n(-c2ccc(Cl)cc2)c(=O)c1/C=N/n1c(C)nc2ccccc2c1=O | -1.03
78 | CC(C)(C)c1ccc(C(=O)Nc2ccc(C(=O)NCc3cccnc3)cc2)cc1 | -20.6
79 | CCC(C)C(NC(=O)c1ccc(Cl)cc1)C(=O)Nc1cccnc1 (centres unmarked) | -23.9
80 | O=C(Nc1ccccc1C(=O)NCCc1ccc(O)cc1)c1ccco1 | 5.37
81 | CCOC(=O)c1cnn(-c2ccccc2)c1NC(=O)CN1CCOCC1 | 16.1
82 | C=CCC(C#Cc1ccccc1)[N+](C)(C)CC=C.[Br-] (centres unmarked) | 10.1
83 | CC(=O)Nc1ccc(NC(=O)C(C)n2nc([N+](=O)[O-])c(Br)c2C)cc1 (centres unmarked) | 8.38
84 | Cc1cc(S(=O)(=O)N2CCCC2)c(C)s1 | -6.72
85 | Cc1ccc(CNC(=O)CSc2nc3[nH]ncc3c(=O)[nH]2)cc1 | 4.89
86 | COc1ccc(CCN2CC(C(=O)Nc3ccc4c(c3)OCO4)CC2=O)cc1OC (centres unmarked) | 18
